Patent US20150374718A1, “Zhankuic Acid A and Analogs thereof and Their Use as an Anti-Inflammatory Agent” (National Cheng Kung University, priority 2014, published 2015)

System: pCMV-Luc-transformed S. choleraesuis
Conditions: C57BL/6 mice; oral ZAA 2 mg/kg; 2×10^8 CFU/mouse; 48 h; vs vehicle

Which “bioluminescence of infected mice” value does the source give for `C=C(CC[C@@H](C)[C@H]1CC[C@H]2C3=C(C(=O)C[C@]12C)[C@@]1(C)CCC(=O)[C@@H](C)[C@@H]1CC3=O)C(C)C(=O)O` (stereo partly shown) [No. 1, Zhankuic acid A] here?
Its value is “much weaker bioluminescence”.
